Cell count data for 11 compounds are collected here from the supplement of paper PMC4604168 (melanoma cell lines).

The structures appear in SMILES notation. This is one part of the list. Many values rest on one well or one pass, so single values are uncertain.

Among the test systems are WM115; WM1716; WM1745; WM3526; WM3619; WM451Lu.
Common to all, as to experiment: cell count relative to DMSO control; melanoma cells; higher = more viable cells
What all share (conditions): library dose: low library concentration; 72 h
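Further: cell number obtained by counting DAPI-stained nuclei in high-throughput microscope images with image analysis software, screen run in 1,536-well plates.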

Consider `CCN(CC)CCNC(=O)c1c(C)[nH]c(/C=C2\C(=O)Nc3ccc(F)cc32)c1C` [sunitinib] + CC(C)(C)c1cnc(CSc2cnc(NC(=O)C3CCNCC3)s2)o1 [SNS-032] (first compound 0.4 µM, partner dose 0.01 µM), for which the cell count was 87.5% with WM115; 116% with WM1716; 69.9% in the assay on WM1745; 116% in the assay on WM3526; 89.4% in the assay on WM3619; 104% in the assay with WM451Lu.

Regarding `Cn1cnc2c(F)c(Nc3ccc(Br)cc3Cl)c(C(=O)NOCCO)cc21` [selumetinib] + O=C(Nc1ccccc1)c1cc([N+](=O)[O-])ccc1Cl [GW9662] (first compound 0.015 µM, partner dose 2 µM), the cell count in the assay on WM115 turned out to be 96.8%; with WM1716, 109%; with WM1745, 89.8%; in the assay with WM3526, 56.3%; in the assay on WM3619, 66.9%; in the assay with WM451Lu it was 100%.

For the compound `CCN(CC)CCNC(=O)c1c(C)[nH]c(/C=C2\C(=O)Nc3ccc(F)cc32)c1C` [sunitinib] + Cn1cncc1[C@@](N)(c1ccc(Cl)cc1)c1ccc2c(c1)c(-c1cccc(Cl)c1)cc(=O)n2C [tipifarnib] (first compound 0.4 µM, partner dose 0.01 µM), the cell count in the assay on WM115 is 82.4%; in the assay on WM1716, 90.8%; in the assay on WM1745 it was 83.2%; in the assay with WM3526, 86.4%; in the assay with WM3619 it was 91.3%; with WM451Lu it was 108%.

In the case of `COc1cc([C@@H]2c3cc4c(cc3[C@@H](O[C@@H]3O[C@@H]5CO[C@@H](C)O[C@H]5[C@H](O)[C@H]3O)[C@H]3COC(=O)[C@H]23)OCO4)cc(OC)c1O` [etoposide] + CCCCCCCCCCCC1=C(O)C(=O)C=C(O)C1=O [Embelin] (first compound 0.02 µM, partner dose 1.2 µM), the cell count with WM115 worked out at 73.1%; in the assay on WM1716, 96.8%; with WM1745 it was 88.6%; with WM3526, 108%; in the assay with WM3619, 91.6%; in the assay on WM451Lu, 109%.

Consider `CCN(CC)CCNC(=O)c1c(C)[nH]c(/C=C2\C(=O)Nc3ccc(F)cc32)c1C` [sunitinib] + Cc1cc([N+](=O)[O-])ccc1NS(=O)(=O)c1cc(Cl)ccc1Cl [FH535] (first compound 0.4 µM, partner dose 1 µM), for which the cell count in the assay on WM115 turned out to be 92%; with WM1716, 117%; in the assay with WM1745 it was 87.7%; in the assay with WM3526 it was 79.1%; in the assay with WM3619, 104%; in the assay with WM451Lu it was 92.6%.

Turning to `C[C@]1(O)C[C@@H](c2nc(-c3ccc4ccc(-c5ccccc5)nc4c3)c3c(N)nccn32)C1` + Nc1cccc2c1CN(C1CCC(=O)NC1=O)C2=O [lenalidomide] (first compound 0.4 µM, partner dose 1 µM), the cell count is 106% in the assay on WM115; 80.6% with WM1716; 80% with WM1745; 93.2% with WM3526; 87.4% with WM3619; 103% in the assay on WM451Lu.

With `COc1cc([C@@H]2c3cc4c(cc3[C@@H](O[C@@H]3O[C@@H]5CO[C@@H](C)O[C@H]5[C@H](O)[C@H]3O)[C@H]3COC(=O)[C@H]23)OCO4)cc(OC)c1O` [etoposide] + Nc1nc(F)nc2c1ncn2[C@@H]1O[C@H](CO)[C@@H](O)[C@@H]1O [fludarabine] (first compound 0.02 µM, partner dose 0.2 µM), the cell count is 88.7% in the assay with WM115; 95.1% with WM1716; 85.3% in the assay on WM1745; 38.7% with WM3526; 102% in the assay on WM3619; 59.3% in the assay with WM451Lu.

Turning to `C[C@]1(O)C[C@@H](c2nc(-c3ccc4ccc(-c5ccccc5)nc4c3)c3c(N)nccn32)C1` + CC(C)C[C@H](NC(=O)[C@H](Cc1ccccc1)NC(=O)c1cnccn1)B(O)O [Bortezomib] (first compound 0.4 µM, partner dose 0.001 µM), the cell count turned out to be 98.2% with WM115; 84.2% with WM1716; 54.4% in the assay with WM1745; 103% in the assay on WM3526; 60.3% in the assay with WM3619; 85% in the assay on WM451Lu.

Take `C[C@]1(O)C[C@@H](c2nc(-c3ccc4ccc(-c5ccccc5)nc4c3)c3c(N)nccn32)C1` + C[C@@H](Oc1cc(-c2cnn(C3CCNCC3)c2)cnc1N)c1c(Cl)ccc(F)c1Cl [Crizotinib] (first compound 0.4 µM, partner dose 0.2 µM): the cell count in the assay on WM115 worked out at 104%; in the assay on WM1716, 92%; with WM1745, 86.3%; with WM3526, 81.4%; with WM3619, 100%; with WM451Lu, 91.2%.

In the case of `COc1cc([C@@H]2c3cc4c(cc3[C@@H](O[C@@H]3O[C@@H]5CO[C@@H](C)O[C@H]5[C@H](O)[C@H]3O)[C@H]3COC(=O)[C@H]23)OCO4)cc(OC)c1O` [etoposide] + CCCCCCCCCCCCCCCCCCOP(=O)([O-])OC1CC[N+](C)(C)CC1 [Perifosine] (first compound 0.02 µM, partner dose 0.4 µM), the cell count turned out to be 95.4% with WM115; 95.8% in the assay with WM1716; 118% in the assay with WM1745; 120% in the assay on WM3526; 84.1% in the assay on WM3619; 88.5% with WM451Lu.

For the compound `COc1cc([C@@H]2c3cc4c(cc3[C@@H](O[C@@H]3O[C@@H]5CO[C@@H](C)O[C@H]5[C@H](O)[C@H]3O)[C@H]3COC(=O)[C@H]23)OCO4)cc(OC)c1O` [etoposide] + Cn1c(=O)n(-c2ccc(C(C)(C)C#N)cc2)c2c3cc(-c4cnc5ccccc5c4)ccc3ncc21 [NVP-BEZ235] (first compound 0.02 µM, partner dose 0.004 µM), the cell count with WM115 amounted to 89.6%; in the assay on WM1716, 83.5%; in the assay with WM1745, 91.5%; with WM3526, 93.3%; in the assay on WM3619, 78.3%; in the assay on WM451Lu it was 108%.
